From PubChem BioAssay AID1159614 (National Center for Advancing Translational Sciences (NCATS), 2016)
About 65 (0.1%) of roughly 45,000 compounds were called active. Calls come from the whole dose curve; as a rule, active = well fitted activation curve with a large enough effect; inconclusive = small, poorly fitted or top-dose-only effect; inactive = no such curve, though single readings can be large or run the other way. Some of the results follow.

biological target: Galactocerebrosidase (Homo sapiens) (UniProt P54803); assay: A Novel Cell-Based Assay to Identify Small Molecules for B -Galactocerebrosidase; settings: 145M-Twi-hGALC-G270D cells (Twitcher mouse brain line with human GALC G270D), HMU-beta-Gal fluorescence, 48 h; series mostly up to 57.5 µM; activation: at the top concentration; note: 0% is about no effect; nearly all actives have a fitted effect of over 65% in size
In short: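 Live 145M-Twi cells (Twitcher mouse brain-derived, GALC-null) stably expressing human GALC-G270D, with a wild-type GALC line, were compound-treated. Residual GALC activity was then read as fluorescence from 0.1 mM final HMU-β-gal at pH 5.2; higher signal means activation.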

Sequence of UniProt P54803 (P54803 whole entry, looked up): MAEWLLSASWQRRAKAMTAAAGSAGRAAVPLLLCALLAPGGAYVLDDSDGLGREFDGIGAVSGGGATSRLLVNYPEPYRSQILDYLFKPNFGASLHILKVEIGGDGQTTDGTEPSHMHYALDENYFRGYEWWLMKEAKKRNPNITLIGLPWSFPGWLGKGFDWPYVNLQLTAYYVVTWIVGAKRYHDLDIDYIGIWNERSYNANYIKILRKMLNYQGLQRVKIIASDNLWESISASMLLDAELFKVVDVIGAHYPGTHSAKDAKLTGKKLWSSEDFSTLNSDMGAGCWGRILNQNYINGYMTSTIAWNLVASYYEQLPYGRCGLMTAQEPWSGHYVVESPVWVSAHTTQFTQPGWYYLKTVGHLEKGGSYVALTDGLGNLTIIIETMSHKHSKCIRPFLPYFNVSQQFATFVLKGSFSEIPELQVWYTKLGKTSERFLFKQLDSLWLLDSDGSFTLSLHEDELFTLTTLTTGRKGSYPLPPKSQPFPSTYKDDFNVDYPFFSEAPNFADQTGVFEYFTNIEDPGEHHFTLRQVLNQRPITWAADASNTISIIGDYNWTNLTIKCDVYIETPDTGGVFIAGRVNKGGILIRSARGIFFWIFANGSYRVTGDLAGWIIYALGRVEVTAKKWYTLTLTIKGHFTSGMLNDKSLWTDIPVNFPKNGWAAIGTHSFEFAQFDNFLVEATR

activation, inactive:
Cc1ccc(CN(Cc2ccco2)C(=O)c2ccccc2Br)o1 2.7%, Cc1ccc(S(=O)(=O)c2nnn3c2nc(NC2CCCCCC2)c2sccc23)cc1C -7.63%, CC(C)c1nn2c(=O)cc(COC(=O)C3CCCCC3)nc2s1 -10.9%, Cc1cc(Br)cc(C)c1NC(=O)c1sc2ncn(Cc3cccc(F)c3)c(=O)c2c1C -5.72%, CC1CCN(C(=O)c2cc3c(=O)n(C)c4cc(Cl)ccc4c3s2)CC1 -12.4%, Cc1nc(-c2ccc(S(=O)(=O)N3CCN(c4cccc(C(F)(F)F)c4)CC3)cc2)co1 -13.7%, CCCOc1ccc(-c2nonc2NC(=O)c2ccco2)cc1OCCC 0.953%, COc1cccc(-c2csc(-c3c(N)c(C(=O)c4ccc5c(c4)OCO5)n4ccccc34)n2)c1 -12.9%, CCOc1ccc(C2C(C(=O)Nc3ccccc3)=C(C)Nc3nc(-c4ccccc4)nn32)cc1OC (centres undefined) -4.42%, O=C(Cn1c(-c2cccs2)cc2ccccc21)N1CCN(c2ccc(Cl)cc2)CC1 -8.5%, Cc1ccc(S(=O)(=O)NC(=O)NN2CCCCCC2)cc1 -16.7%, Cc1ccc(NC(=O)Cn2c(=O)c3ccc(Cl)cc3n3nncc23)cc1 1.83%, CCNC(=O)c1ccc(C)c(-n2c(C)nc3cccnc32)c1 0.843%, COc1ccc(OC)c(NC(=O)C(C)n2c(=O)cc(C)c3c(C)nn(-c4ccccc4)c32)c1 (centres undefined) -11.2%, Cc1cc(C)n(CCc2nc3c4ccccc4nc(SCc4ccc(F)cc4)n3n2)n1 -1.55%, Cc1ccc(CNC(=O)c2c[nH]c3ccc(S(=O)(=O)N4CCOCC4)cc3c2=O)cc1 -21%, O=c1c2cnn(-c3ccc(F)cc3)c2ncn1Cc1ccccc1Cl -9.41%, COc1ccc(-c2cn3c(n2)sc2cc(C(=O)NCCC4=CCCCC4)ccc23)cc1 -11.6%, CC(=O)c1ccc(S(=O)(=O)Nc2ccc(-c3cn4c(C)csc4n3)cc2)cc1 7.91%, COc1ccc(C)cc1NC(c1nnc(-c2ccccc2)o1)c1ccc(F)cc1Cl (centres undefined) -12.8%, CCOC(=O)c1c(NC(=O)c2ccc(C)cc2)sc2c1CCCCC2 -8.94%, N#Cc1ccccc1NC(=O)CSc1nc(-c2ccccc2)cc(C(F)(F)F)c1C#N -3.77%, CCc1ccc(N2CC(c3nnc(NC(=O)c4ccco4)s3)CC2=O)cc1 (centres undefined) -16.8%, Cc1c(C(=O)Nc2ccc(F)cc2F)oc2c1-c1nn(Cc3c(F)cccc3Cl)cc1CC2 -13.8%, Cc1ccc(Cc2cnc(NC(=O)c3ccc4c(c3)CC(c3ccccc3)OC4=O)s2)cc1 (centres undefined) -16.1%, O=C(NC1CC(=O)N(c2ccc(F)cc2)C1)C1CCCC1 (centres undefined) -3.32%, Cc1ccc(Nc2nc(-c3ccccc3)nc3ccccc23)cc1 -22.4%, COc1cc(Cl)c(C)cc1NC(=O)c1cc(S(=O)(=O)N2CCCC2)ccc1F -11.4%, Cc1cc(NC(=O)c2ccccc2F)ccc1-c1nc2ccccc2s1 -15.2%, COc1ccc(C(=O)N2CC(=O)Nc3ccc(Br)cc3C2c2ccc(F)cc2)cc1OC (centres undefined) -19.5%, CCc1ccc(NC(=O)c2sc(-n3nc(C)c(CCC(C)C)c3C)nc2C)cc1 -1.73%, Cc1cccc(C)c1OCC(=O)N(Cc1ccccc1F)C1CCS(=O)(=O)C1 (centres undefined) -21.2%, COc1ccc(NC(=O)c2ccc3oc(=O)c(S(=O)(=O)c4ccc(F)cc4)cc3c2)cc1OC -17.9%, CCOC(=O)Cc1ccc(NC(=O)N(Cc2ccc(OC)cc2)C2CCN(C(C)=O)CC2)cc1 -9.36%, CCOC(=O)c1c(NC(=O)/C(C#N)=C/c2ccc(OC)cc2)sc2c1CCC2 -9.56%, O=C(Nc1ccccc1-c1nc2ccccc2s1)c1ccc(F)cc1 -6.08%, Clc1ccc(-c2cc3ncc4c(n3n2)-c2ccccc2OC4)cc1 -7.19%, COc1ccc(CCNc2nc3c(-c4cccc(C(F)(F)F)c4)nnn3c3ccccc23)cc1OC -10.8%, Cc1ccc(CN2CCCn3nc(C(=O)NCc4ccc(N(C)C)cc4)cc3C2=O)cc1 -9.3%, CCOc1ccc(NC(=O)c2cc3cc(C)ccc3n2C)cc1 -14.9%, CC(C)CNC(=O)Nc1cc(C(=O)NCc2ccc(C(C)C)cc2)ccc1N1CCCC1 -2.6%, CCC(=O)N1CCc2cc(S(=O)(=O)NCCC(=O)Nc3ccc(CC)cc3)ccc21 -19.6%, CC1CCN(c2nc(-c3ccc(C(C)(C)C)cc3)nc3ccccc23)CC1 -10.6%, O=C(CSc1nc2ccsc2c(=O)n1-c1ccc(Cl)cc1)NCc1ccc(Cl)cc1 -8.95%, CCOc1ccc2nc(N3CCCC(C(=O)Nc4ccc(OC)cc4)C3)sc2c1 (centres undefined) -14.2%, O=C(CC1N=C2c3ccccc3N=C(SCC(=O)Nc3ccc(F)cc3)N2C1=O)NCc1ccco1 (centres undefined) -22%, COc1ccc(CCNC(=O)c2c(O)nc3ccccn3c2=O)cc1OC -6.25%, COc1ccccc1NC(=O)CSc1oc(-c2ccco2)nc1S(=O)(=O)c1ccc(C)cc1 -5.28%, CCOc1ccc(NC(=O)c2oc3ccccc3c2NC(=O)C(C)(C)C)cc1 1.67%, CCc1nn2c(=O)cc(COC(=O)c3ccc(NC(=O)COc4ccccc4C)cc3)nc2s1 -16.6%, COc1ccc(NC(=O)c2csnn2)cc1Cl -24.2%, COc1cc(Nc2ncc3c(n2)CCN(Cc2ccc(OC(C)C)c(OC)c2)C3)cc(OC)c1 -35%, Cc1ccc(C(=O)Nc2nnc(S(=O)(=O)N(C)Cc3ccc(Cl)cc3)s2)cc1 -10.5%, COc1ccc(NC(=O)C2CCN(C3=NS(=O)(=O)C(c4ccc(C)c(C)c4)=C3C)CC2)c(OC)c1 -17.4%, Cc1ccccc1OC(=O)c1cc(-c2ccc3c(c2)OCCO3)on1 -15.5%, O=C(c1noc2c1CCCCC2)N1CCN(c2cccc(Cl)c2)CC1 -9.5%, CCN1CCN(c2nnc(-n3cccc3C(=O)NCc3ccccc3OC)s2)CC1 -21.4%, O=C(Cn1ncc2c3ccccc3n(Cc3ccccc3F)c2c1=O)N1CCCCCC1 -10.4%, Cc1ccc(NC(=O)N2CC3CCCN3c3ccccc32)cc1Cl (centres undefined) -15.9%, CCc1ccccc1NC(=O)Cn1nnc2sc3c(c2c1=O)CCC(C(C)(C)C)C3 (centres undefined) -0.75%, O=C(c1cc2ccc3cccnc3c2[nH]1)N1CCCCC1 -10.5%, COc1ccc(C)cc1NS(=O)(=O)c1cnc(N)nc1 -11.6%, COc1cccc(CNC(=O)C2CCN(S(=O)(=O)c3c(C)noc3/C=C/c3cccs3)CC2)c1 -0.261%, O=C(NCCc1csc(-c2cccc(F)c2)n1)C(=O)Nc1cc(F)ccc1F -25.6%, Cc1ccc(C)c(NC(=O)Cc2coc3cc(C)cc(C)c23)c1 -14.1%, CC(=O)Nc1cccc(NC(=O)CSc2nccn2Cc2ccc3c(c2)OCO3)c1 -24.1%, Cc1cccc(NC(=O)CSc2ccc(-c3sc(-c4ccccc4)nc3C)nn2)c1C -15.1%, CC(=O)c1ccc(N2CCN(C(=O)c3cc(S(=O)(=O)N4CCCCCC4)cn3C)CC2)cc1 -1.68%, CCOC(=O)c1sc2ncn(CC(=O)Nc3cc(Cl)ccc3C)c(=O)c2c1C -13.2%, CCOC(=O)c1cc2c(=O)n3ccccc3nc2n(CC2CCCO2)c1=NC(=O)c1ccccc1Br (centres undefined) -16.4%, O=C(OCc1cc(=O)n2nc(-c3cccs3)sc2n1)c1cccc(F)c1 -0.361%, CC(C)CCN(C(=O)Nc1ccc(Cl)c(Cl)c1)C1CCN(C(C)C)CC1 -11.6%, COCCCNC(=O)c1ccc(Cn2c(SCc3ccc(F)cc3)nc3cccnc32)cc1 -46.5%, Cc1cc(C(=O)Nc2c(C)cccc2C)n(-c2ccccc2)n1 -9.27%, COCCn1c(=O)[nH]c2cc(C(=O)Nc3ccc(OC)cc3)ccc2c1=O -15.6%, CCOc1ccc(CNC(=O)c2ccc3c(c2)nc2n3CCCCC2)cc1 -30.9%, COc1ccc(C(=O)Nc2ccc3oc(-c4cccnc4)nc3c2)cc1OC -20.4%, CCCCNc1c(C(=O)OCC)c(C)nc2c1cnn2CC -18.4%, COc1ccc(CCNC(=O)c2cc(=O)c3ccc(C)cc3o2)cc1OC -29.9%, CCCCCn1c(=O)[nH]c2cc(C(=O)NC(C)CC)ccc2c1=O (centres undefined) -9.83%, CC(C)(C)c1ccc(OCCOCCn2c(-c3ccc(Cl)cc3)nc3ccccc3c2=O)cc1 -3.05%, O=C(COC(=O)c1cccc(NC(=O)c2ccc(Br)cc2)c1)c1ccc(Cl)cc1 -9.62%, Cc1cccc(Cn2c(COc3ccccc3)nc3ccccc32)c1 -4.83%, CCn1c2ccccc2c2cc(NC(=O)COc3cc(C)ccc3C)ccc21 -20%, CCc1cnc2c(c1SCC(=O)Nc1ccc(C(=O)OC)cc1)c(=O)n(C)c(=O)n2C -9.75%, Cc1ccc2c(c1)cc(C(=O)NCc1ccccc1C)n2C -7.37%, CC(C)Oc1ccc(CNC(=O)C2CCN(Cc3cc4ccccc4n3Cc3ccccc3)CC2)cc1 -0.354%, CC1CCc2onc(C(=O)N3CCN(c4cccc(Cl)c4)CC3)c2C1 (centres undefined) -8.35%, Cc1cc(C)c(S(=O)(=O)NCC(c2ccco2)S(=O)(=O)c2cccs2)c(C)c1 (centres undefined) -17.9%, Cc1cc(Br)cc2c1N(Cc1ccccc1OC(C)C)C(=O)C2=O -38.9%, O=C(/C=C/c1ccccc1)Nc1nc2n(n1)C(c1ccc(F)cc1)C=C(c1ccccc1)N2 (centres undefined) -10.6%, CC(C)Oc1ccc(CNC(=O)c2ccc(NC(=O)N3CC(C)Sc4ccccc43)cc2)cc1 (centres undefined) -4.38%, CC(=O)CC/C=C(\C)CC/C=C(\C)CC/C=C(\C)CCC=C(C)C -5.44%, CCOCCc1nn2c(=O)cc(COC(=O)c3ccc(NC(=O)C(C)(C)C)cc3)nc2s1 -5.14%, COc1ccc(NC(=O)c2nc(-c3ccc(C)cc3)n3c2CCCCC3)c(OC)c1 -6.13%, CCc1cccc(C)c1NC(=O)c1cnn(-c2ccc(OC)cc2)c1C1CCN(C(=O)OC(C)(C)C)CC1 -13.2%, CCOC(=O)c1ccccc1NC(=O)c1cnc(N2CCOCC2)c2ccccc12 -7.45%, Cc1ccc(SCC(=O)Nc2ccc3oc(-c4ccccc4F)nc3c2)cc1 0.005%, Cc1cc2oc(C(=O)N(Cc3ccco3)Cc3ccccc3Cl)c(C)c2cc1C 25.8%
